Experimental data as given in PubChem BioAssay AID1030 (National Center for Advancing Translational Sciences (NCATS), 2008).
Among all 220,000 compounds or so, about 16,000 (7.3%) were called active. This list was built around the results that the source calls inconclusive (neither active nor inactive); the mix of calls is not that of the screen. The call rests on the fitted dose curve; in most records, active means well fitted inhibition curve with a large enough effect (not every such curve was filed as active); inconclusive means small, poorly fitted or top-dose-only effect, or another doubt; inactive means no such curve, though single readings can be large or run the other way. No potency is given beside an inconclusive call; the fits are too rough.
Potency means the concentration at half of the fitted maximal effect; tags describe the fitted curve by direction and shape.
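Wherever activity, negative = inhibition is given: plate controls were no enzyme wells and a reference inhibitor.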

Each compound was assayed against Aldehyde dehydrogenase 1A1 (Homo sapiens) (UniProt P00352) (assay: qHTS Assay for Inhibitors of Aldehyde Dehydrogenase 1 (ALDH1A1)). Details: Purified ALDH1A1, NADH fluorescence, propionaldehyde substrate; series mostly up to 75.3 µM; activity, negative = inhibition: at the top concentration.
Sequence of UniProt P00352 (P00352 whole entry, looked up): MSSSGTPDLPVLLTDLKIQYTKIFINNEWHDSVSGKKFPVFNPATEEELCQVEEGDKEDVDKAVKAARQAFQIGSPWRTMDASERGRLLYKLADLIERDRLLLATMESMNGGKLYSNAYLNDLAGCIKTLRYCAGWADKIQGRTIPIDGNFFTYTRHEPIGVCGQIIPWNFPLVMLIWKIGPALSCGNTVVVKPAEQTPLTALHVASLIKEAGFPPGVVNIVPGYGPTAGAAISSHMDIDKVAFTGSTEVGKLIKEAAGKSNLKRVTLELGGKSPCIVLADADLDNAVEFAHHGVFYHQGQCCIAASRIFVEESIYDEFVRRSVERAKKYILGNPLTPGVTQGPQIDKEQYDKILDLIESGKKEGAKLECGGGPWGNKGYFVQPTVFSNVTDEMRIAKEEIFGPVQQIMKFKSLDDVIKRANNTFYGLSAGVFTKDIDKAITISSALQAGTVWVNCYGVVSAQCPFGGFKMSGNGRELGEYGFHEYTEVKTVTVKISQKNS
CCCCCC(=O)Nc1cc(N(C)C)nc2ccccc12 was tested, and the Potency was inconclusive [inhibitor, single point]. CNC(=S)N/N=C/c1cc(C)n(-c2ccc(Cl)c(Cl)c2)c1C was tested, and the Potency was inconclusive [inhibitor, single point]. O=C(c1ccco1)N1CCC2(CCCN(c3ncccn3)C2)CC1 was tested, and the Potency was inconclusive [inhibitor, partial curve]. With COc1ccc(NC(=O)CN2CCN(c3ccccc3Cl)CC2)cc1 the Potency was inconclusive [inhibitor, single point]. In the case of CC(=O)c1cccc(NC(=O)C(OC(=O)c2ccccc2NS(=O)(=O)c2cccs2)c2ccccc2)c1 (stereo not given), the Potency is reported as inconclusive [inhibitor, single point]. With Cc1ccc(/C=C/C(=O)NCc2ccc3c(c2)OCO3)o1 the Potency was inconclusive [inhibitor, single point]. In the case of O=C(c1ccco1)N1CCN(C(c2ccccc2)c2nnnn2C2CCCC2)CC1 (stereo not given), the Potency is reported as inconclusive [inhibitor, single point]. In the case of O=C(Cn1nc2ccccc2n1)N/N=C/c1cc(Cl)cc([N+](=O)[O-])c1O, the Potency is reported as active: 14.1 µM. For CCCNC(=O)Nc1nccs1, the “activity, negative = inhibition” value was inactive: -6.59%. For CC(=O)N1CCN(c2nc(N)c(C#N)c(CC#N)c2C#N)CC1, the “activity, negative = inhibition” value was inactive: 1.21%. In the case of COC(=O)c1c(NC(=O)COC(=O)Cn2cnc3ccccc32)sc2c1CCCC2, the Potency is reported as active: 14.1 µM. In the case of CCCSc1nc2c(cnn2-c2ccccc2)c(=O)[nH]1, the Potency is reported as inconclusive [inhibitor, single point]. CS(=O)(=O)CCNCc1nc(-c2ccc3ncnc(Nc4ccc(OCc5cccc(F)c5)c(Cl)c4)c3c2)cs1 was tested, and the “activity, negative = inhibition” value was inactive: -16.1%. In the case of Cc1cccc(CNc2ncncc2-c2ccc3c(c2)OCO3)c1, the “activity, negative = inhibition” value is reported as inactive: -15.3%. With O=C(Nc1nnc(-c2ccccc2Cl)o1)c1nc2ccccc2s1 the “activity, negative = inhibition” value was inactive: 12.2%. O=C(C1=C[C@H](c2coc3ccccc3c2=O)C[C@H](OCc2ccc(CO)cc2)O1)N1CCN(Cc2ccc3c(c2)OCO3)CC1 was tested, and the “activity, negative = inhibition” value was inactive: -3.5%. With COC(=O)CCNc1ccc2c(c1)OCCO2 the “activity, negative = inhibition” value was inactive: 1.06%. For O=C(Nc1cc(S(=O)(=O)N2CCOCC2)ccc1O)c1ccc(NS(=O)(=O)c2ccc(Cl)s2)cc1, the “activity, negative = inhibition” value was inactive: -13%. In the case of O=C(NCc1cccnc1)c1ccc([N+](=O)[O-])o1, the “activity, negative = inhibition” value is reported as inactive: 8.2%. COc1ccc(CCN2C(=O)C(O)=C(C(C)=O)C2c2ccccc2OC)cc1OC (stereo not given) was tested, and the “activity, negative = inhibition” value was inactive: -15.6%. Cc1ccc(S(=O)(=O)Cc2ccc(C(=O)N3CCCCCC3)o2)cc1 was tested, and the Potency was inconclusive [inhibitor, partial curve]. With C=CCc1ccc(OCCCOc2ccc(C(=O)O)cc2)c(OC)c1 the “activity, negative = inhibition” value was inactive: -8.64%. With Cc1ccccc1N1CCN(S(=O)(=O)c2ccc3oc(=O)ccc3c2)CC1 the “activity, negative = inhibition” value was inactive: -3.25%. With Cc1cc(C(=O)CSc2nn3c(=O)c(C(C)(C)C)nnc3s2)c(C)n1C1CC1 the Potency was inconclusive [inhibitor, single point]. For O=C(CSc1ccccc1F)NC(=O)NCc1ccco1, the “activity, negative = inhibition” value was inactive: -3.3%. With CC(C)CC(=O)NS(=O)(=O)c1ccc(NC(=O)c2ccco2)cc1 the Potency was inconclusive [inhibitor, single point]. With O=c1[nH]c(SCC2CCCCO2)nc2ccccc12 (stereo not given) the Potency was inconclusive [inhibitor, single point]. For CCOc1ccccc1N1CCN(C2=C(NS(=O)(=O)c3cccs3)C(=O)c3ccccc3C2=O)CC1, the Potency was active: 10 µM. Cc1sc2nc(CN3CCOCC3)nc(Oc3ccc(NC(=O)c4ccco4)cc3)c2c1C was tested, and the Potency was active: 17.8 µM. CCC(C)(C)c1nnc(NC(=O)c2ccc([N+](=O)[O-])cc2)s1 was tested, and the “activity, negative = inhibition” value was inactive: 11.2%. For COc1cc(O)cc(/C=C/c2ccccc2)c1, the Potency was inconclusive [inhibitor, single point]. With O=C(NNc1cccc(Cl)n1)Nc1cccc(C(F)(F)F)c1 the Potency was active: 20 µM. With COC(=O)c1cnn2c3c(c(C)nc12)CCCC3 the Potency was inconclusive [inhibitor, partial curve]. In the case of N#Cc1ccsc1NC(=O)COC(=O)CCCSc1nc2ccccc2s1, the “activity, negative = inhibition” value is reported as inactive: -12.7%. In the case of Cc1ccccc1-n1c(SCC(=O)NC(N)=O)nc2sc(-c3ccccc3)cc2c1=O, the Potency is reported as inconclusive [inhibitor, partial curve]. With COC(=O)Cc1nnc(NC(=O)c2ccccc2)s1 the “activity, negative = inhibition” value was inactive: -32.4%. CC1(C)CC(=O)c2sc(NC(=O)CN3CCCCC3)nc2C1 was tested, and the Potency was active: 20 µM. With N#C/C(=C\c1ccc(-c2ccc(S(=O)(=O)N3CCOCC3)cc2)o1)C(=O)NC1CC1 the Potency was inconclusive [inhibitor, partial curve]. In the case of CCOC(=O)c1cc(C(=O)c2cccs2)n2ccc(C(C)=O)cc12, the Potency is reported as inconclusive [inhibitor, single point]. With CN(C)S(=O)(=O)c1ccc(C(=O)Nc2nc3ccccc3[nH]2)cc1 the Potency was inconclusive [inhibitor, single point]. In the case of O=C(O)CSc1nc(-c2ccc(Cl)cc2)nc2c1oc1ccccc12, the Potency is reported as inconclusive [inhibitor, single point]. For CCc1cc(C(=O)OC)c(NC(=O)CCC(=O)O)s1, the Potency was active: 17.8 µM. For Cc1ccc(-c2ccc(/C=C3\SC(N4CCOCC4)=NC3=O)o2)cc1, the Potency was inconclusive [inhibitor, single point]. Cc1ccc(CN(C#N)c2nc(C)cc(C)n2)cc1 was tested, and the Potency was inconclusive [inhibitor, partial curve]. In the case of CCn1c(SCC(=O)NNC(=O)c2ccc(C)cc2)nnc1-c1ccco1, the “activity, negative = inhibition” value is reported as inactive: -0.666%. Cc1cccc(Nc2nc(N)nc(CN3CCN(c4ccccc4)CC3)n2)c1 was tested, and the “activity, negative = inhibition” value was inactive: -14.1%. CC(C)C(NC(=O)c1ccc(F)cc1)C(=O)OCC(=O)N1CC(=O)Nc2ccccc21 (stereo not given) was tested, and the “activity, negative = inhibition” value was inactive: 3.46%. CC(C)NC(=O)c1ccc(COCC(F)(F)C(F)F)cc1 was tested, and the “activity, negative = inhibition” value was inactive: 2.59%. Fc1cc2nccnc2cc1N1CCSCC1 was tested, and the “activity, negative = inhibition” value was inactive: 17.1%. With C=CCn1c(O)c(N=NC(=O)c2ccccc2NS(=O)(=O)c2cccs2)c2ccccc21 the Potency was active: 4.47 µM. CC(=O)NC1C(Oc2ccc(C=O)cc2)OC(COC(C)=O)C(OC(C)=O)C1OC(C)=O (stereo not given) was tested, and the Potency was active: 3.55 µM. In the case of CCN(CC)S(=O)(=O)c1ccc2[nH]cc(C(=O)NCCC3=CCCCC3)c(=O)c2c1, the Potency is reported as inconclusive [inhibitor, full curve]. With c1ccc(-c2ccccc2-c2nc(-c3cccnc3)no2)cc1 the Potency was inconclusive [inhibitor, single point]. C=CCSc1nnc(-c2ccccc2N=Cc2c(C)[nH]n(-c3ccccc3)c2=O)c(=O)[nH]1 was tested, and the Potency was inconclusive [inhibitor, single point]. In the case of COc1cc(-c2nn3c(-c4cccc(C)c4)nnc3s2)cc(OC)c1OC, the “activity, negative = inhibition” value is reported as inactive: 6.41%. For Cc1cc(N2CCCC2)ccc1/C=N/n1cnnc1, the Potency was inconclusive [inhibitor, single point]. In the case of Cn1cnc([N+](=O)[O-])c1S(=O)(=O)c1ccc(Cl)cc1, the Potency is reported as inconclusive [inhibitor, single point]. With Fc1ccccc1NC(=S)Nc1cccc2cnccc12 the Potency was active: 17.8 µM. CC(=O)N1CCCc2cc(S(=O)(=O)Nc3ccc(C)cc3C)ccc21 was tested, and the Potency was inconclusive [inhibitor, single point]. With CCOC(=O)COc1ccc(Br)cc1/C=C/c1[nH]c(=O)[nH]c(=O)c1[N+](=O)[O-] the Potency was inconclusive [inhibitor, single point]. CN(C)CCNC(=O)c1ccc(Cl)s1 was tested, and the “activity, negative = inhibition” value was inactive: 8.92%. With COC(=O)c1ccccc1S(=O)(=O)N(Cc1ccco1)Cc1cc2cc(OC)ccc2[nH]c1=O the Potency was inconclusive [inhibitor, single point]. With CC1(C)C(=O)C2(CCCCC2)C(=O)OC1c1ccc(O)cc1 (stereo not given) the “activity, negative = inhibition” value was inactive: 2.55%. O=C(COC(=O)c1ccc(S(=O)(=O)N2CCOCC2)cc1)NC1CCCCCCC1 was tested, and the Potency was inconclusive [inhibitor, single point]. In the case of O=C(Cn1nnc(-c2ccccc2)n1)N/N=C/c1cccc([N+](=O)[O-])c1O, the “activity, negative = inhibition” value is reported as inactive: 8.59%. CC(C)(C)c1cc2nc3c(c(=O)n2[nH]1)CN(Cc1ccccc1)C3=O was tested, and the Potency was inconclusive [inhibitor, partial curve]. For O=C(c1ccc(N2CCNCC2)cc1)c1cccnc1, the Potency was inconclusive [inhibitor, single point]. With COc1ccc(CCN(Cc2nc(-c3ccccc3)no2)Cc2nc(-c3ccccc3)no2)cc1OC the Potency was inconclusive [inhibitor, single point]. With COc1ccc(N(C)C(=O)CCC(=O)Nc2ccc3nc(N4CCOCC4)cc(C)c3c2)c(OC)c1 the Potency was inconclusive [inhibitor, single point]. For CN1CCc2cc3c(c4c2C1CC41CCC(=NO)CC1)OCO3 (stereo not given), the Potency was inconclusive [inhibitor, partial curve]. In the case of CCOc1ccc(C(=O)NC(=S)NCc2cccnc2)cc1[N+](=O)[O-], the Potency is reported as inconclusive [inhibitor, partial curve]. For COCCOC(=O)C1=C(C)NC(=S)NC1c1cccs1 (stereo not given), the Potency was active: 22.4 µM. CC(C)Cn1c(-c2ccc(Cl)cc2)cnc1SCC(=O)N1CCOCC1 was tested, and the “activity, negative = inhibition” value was inactive: 10.5%. In the case of O=c1c(-c2ccc(Br)cc2)coc2c(CN3CCOCC3)c(O)ccc12, the Potency is reported as inconclusive [inhibitor, partial curve]. Cc1ccc(C(=O)Nc2nc(=O)n(C(=O)c3ccccc3C)s2)cc1 was tested, and the Potency was inconclusive [inhibitor, partial curve].
